# About 450 (0.94%) of roughly 48,000 compounds were called active. This list was built around the results that the source calls inconclusive (neither active nor inactive); the mix of calls is not that of the screen. Calls come from the whole dose curve; as a rule, active = well fitted inhibition curve with a large enough effect; inconclusive = small, poorly fitted or top-dose-only effect; inactive = no such curve, though single readings can be large or run the other way. A potency beside an inconclusive call is a rough fit, not a confirmed value.
# Assay: Primary qHTS for Identification of Small Molecule Inhibitors of Huntingtin Promoter Activity; note: nearly all actives have a fitted effect of over 50% in size
# Settings: HEK293 HTT promoter firefly luciferase reporter (activity 0% = vehicle and -100% = no light), 24 h; activity change, negative = inhibition: at 57.5 µM (top of the series)
# Outline: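 HEK293 luciferase promoter-reporter cells (2,500/well) plated 24 h, then compounds added at up to 57.5 uM final for 24 h at 37 °C. Firefly luminescence by Dual-Glo, normalized to vehicle (0%) and zero RLU (-100%).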
# Potency is the fitted concentration of half-maximal effect; tags give direction and shape of the fitted curve.
SMILES,Potency,"activity change, negative = inhibition"
CN1CCCN(C(=O)c2cccc(-c3ccc(C=C4C(=O)Nc5ccc(Cl)cc54)o3)c2)CC1,"inconclusive: 24.3 µM [inhibitor, partial curve]",–
C=CCc1cccc2cc(-c3nc4ccc(C(=O)O)cc4[nH]3)c(=O)oc12,"inconclusive: 20 µM [inhibitor, single point]",–
O=C(Nc1ccccc1Br)c1cc(S(=O)(=O)NC2CCCCC2)ccc1F,"inconclusive: 39.8 µM [inhibitor, partial curve, poor fit]",–
CCOC(=O)N1CCN(c2ncc3c(n2)CC(c2ccc(Cl)cc2)CC3=O)CC1 (centres undefined),–,inactive: -18.1%
COc1ccc(C2C(C(=O)Nc3cccnc3)=C(C)Nc3nc(SCc4ccccc4)nn32)cc1 (centres undefined),–,inactive: -6.01%
CCOCCCNC(=O)c1ccc(Cn2c(=O)c3cccn3c3cccnc32)cc1,–,inactive: -24.4%
CCOc1ccc(NC(=O)Nc2cc3c(cc2N2CCCCC2)n(C)c(=O)n3C)cc1,"inconclusive: 28.2 µM [inhibitor, single point]",–
COc1ccc(-c2noc(-c3cc(-c4ccc(F)cc4)n[nH]3)n2)cc1,"inconclusive: 31.6 µM [inhibitor, single point]",–
Cc1ccc(-c2cc3nccc(-c4cc([N+](=O)[O-])ccc4O)n3n2)cc1,"inconclusive: 31.6 µM [inhibitor, partial curve, poor fit]",–
CCCCNC(=O)CSc1nc2n[nH]c(C)c2c(=N)n1-c1cccc(C)c1,–,inactive: -20.7%
Cc1c(C(=O)OC2CCCCCC2)[nH]c2c1C(=O)CC(c1ccccc1)C2 (centres undefined),"inconclusive: 10 µM [inhibitor, partial curve, poor fit]",–
Cc1nc2ccc(S(=O)(=O)NC(CC(C)C)C(=O)NCc3ccc(Cl)cc3)cc2s1 (centres undefined),"inconclusive: 31.6 µM [inhibitor, single point]",–
CCCCN(CC)CCCNC(=O)c1cc2c(=O)oc3ccc(C)cc3c2s1,–,inactive: -5.02%
CC(C)c1ccc(NC(=O)c2cnc3sc(N4CCCC4)nn3c2=O)cc1,"inconclusive: 31.6 µM [inhibitor, partial curve, poor fit]",–
Cc1ccc(NC(=O)CSc2nc3c(sc4ccccc43)c(=O)n2CCCC(=O)NC2CCCC2)cc1C,–,inactive: -15%
CC[C@H](Nc1ncnc2nc[nH]c12)c1nc2cccc(F)c2c(=O)n1-c1ccccc1,"inconclusive: 19.3 µM [inhibitor, partial curve, poor fit]",–
O=S(=O)(c1ccc(-c2csc(=Nc3ccc(F)cc3)n2CCCCCCO)cc1)N1CCCC1,"inconclusive: 31.6 µM [inhibitor, partial curve, poor fit]",–
Cc1cccc(OCC(=O)Nc2ccc3c(c2)nc(CN2CCCCC2)n3C)c1,"inconclusive: 28.2 µM [inhibitor, partial curve, poor fit]",–
Cc1ccc(Cl)cc1N1CCN(S(=O)(=O)c2ccc3c(c2)C(C(C)C)C(=O)N3)CC1 (centres undefined),"inconclusive: 22.4 µM [inhibitor, single point]",–
CCOCCCn1c(SCC(=O)Nc2ccc(CC)cc2)nc2ccccc2c1=O,"inconclusive: 28.2 µM [inhibitor, partial curve, poor fit]",–

SMILES,Potency,"activity change, negative = inhibition"
Cc1ccc(CNC(=O)CSc2nc3ccsc3c(=O)n2-c2ccc(Br)cc2)cc1,–,inactive: -11.8%
CC(=O)c1ccc(NC(=O)CC2Nc3cc(C)c(C)cc3NC2=O)cc1 (centres undefined),"inconclusive: 39.8 µM [inhibitor, single point]",–
CCOc1ccc(Nc2nc(C)c(NC(=O)c3cccc(F)c3)c(Nc3ccc(OCC)cc3)n2)cc1,"inconclusive: 5.62 µM [inhibitor, full curve]",–
CCC1Oc2ccc(C)cc2N(CC(=O)N2CCN(c3ccccc3OC)CC2)C1=O (centres undefined),"inconclusive: 39.8 µM [inhibitor, single point]",–
COC(=O)Cc1c(C)nc2nc(-c3ccc(C)cc3)[nH]n2c1=O,–,inactive: 7.62%
CC(C)c1ccc(N2C(=O)N(Cc3ccccc3Cl)c3ccccc3S2(=O)=O)cc1,"inconclusive: 25.1 µM [inhibitor, partial curve, poor fit]",–
COc1ccc(-n2c(=O)c3c(c4cc(OC)ccc4n3C)n(CCC(C)C)c2=O)cc1,–,inactive: -13.1%
COC(=O)c1c(-c2ccccc2)c(-c2ccccc2)nn(C)c1=O,"inconclusive: 35.5 µM [inhibitor, single point]",–
COc1ccccc1N1CCN(C(=O)c2cnc(N3CCOCC3)c3ccccc23)CC1,"inconclusive: 20 µM [inhibitor, partial curve]",–
Cc1cc(CN2CCN(c3ccc(F)cc3)CC2)cs1,"inconclusive: 7.08 µM [inhibitor, single point]",–
O=C(COc1ccc(Cl)cc1)NCC(c1ccco1)S(=O)(=O)c1ccc(Cl)cc1 (centres undefined),"inconclusive: 39.8 µM [inhibitor, single point]",–
COc1ccc(CNC(=O)c2cc3c(=O)n(C)c4ccccc4c3n2C)c(OC)c1,–,inactive: 7.22%
CCS(=O)(=O)c1c(Nc2cc(C)ccc2C)sc(C(=O)c2ccccc2)c1N,"inconclusive: 28.2 µM [inhibitor, single point]",–
CC1=C(C(=O)Nc2ccccc2)C(c2cc(Br)ccc2F)n2ncc(C(=O)Nc3ccccc3)c2N1 (centres undefined),"inconclusive: 31.6 µM [inhibitor, single point]",–
O=C(Nc1ccccc1)OCC(CN1CCCCC1)OC(=O)Nc1ccccc1 (centres undefined),"inconclusive: 28.2 µM [inhibitor, partial curve, poor fit]",–
COc1ccc(CCC(=O)c2c(O)cc(O[C@@H]3O[C@H](CO)[C@@H](O)[C@H](O)[C@@H]3O[C@@H]3O[C@@H](C)[C@H](O)[C@@H](O)[C@@H]3O)cc2O)cc1O,"inconclusive: 4.85 µM [inhibitor, full curve]",–
COc1ccc(NC(=O)Cn2c(=O)n(-c3ccc(OC)cc3)c(=O)c3ccc(C(=O)NCc4ccc(C)cc4)cc32)cc1,"inconclusive: 35.5 µM [inhibitor, partial curve, poor fit]",–
Cc1cc(OCC(=O)N(Cc2ccc(N(C)C)cc2)C2CCS(=O)(=O)C2)cc(C)c1Cl (centres undefined),"inconclusive: 39.8 µM [inhibitor, partial curve, poor fit]",–
O=C(c1cccs1)c1cn(CCOc2ccccc2Cl)c2ccccc12,"inconclusive: 35.5 µM [inhibitor, single point]",–
CCOc1ccc(CCNC(=O)c2ccc(-c3nc(COc4ccc(C)cc4)c(C)o3)cc2)cc1,–,inactive: -23.7%

SMILES,Potency,"activity change, negative = inhibition"
CC1(C)C(=O)N(CCN2CCC(C(=O)c3ccc(F)cc3)CC2)c2ccccc21,–,inactive: -15.6%
CCC1=Nc2cc(C(=O)NCc3ccc(C)cc3)ccc2Sc2ccc(C)cc21,"inconclusive: 35.5 µM [inhibitor, partial curve, poor fit]",–
COc1cc(OC)c(NC(=O)Cc2ccc(-n3c(C)nc4cccnc43)cc2)cc1Cl,"inconclusive: 39.8 µM [inhibitor, partial curve, poor fit]",–
COc1ccc(-c2noc(N3CCC(C(=O)N(C)c4cc(Cl)ccc4OC)CC3)n2)cc1,"inconclusive: 31.6 µM [inhibitor, partial curve, poor fit]",–
COc1ccc(CCNC(=O)CCc2cn(Cc3ccc(C)cc3)c3ccccc23)c(OC)c1OC,"inconclusive: 25.1 µM [inhibitor, single point]",–
COc1ccc2c(CNCCc3cccs3)c(C(=O)O)n(Cc3ccccc3C)c2c1,"inconclusive: 25.1 µM [inhibitor, single point]",–
O=C(CN1C(=O)COc2ccc(S(=O)(=O)N3CCCCCC3)cc21)N1CCN(c2cccc(C(F)(F)F)c2)CC1,"inconclusive: 25.1 µM [inhibitor, partial curve]",–
Cc1cccc(N2CCN(C(=O)C3CCN(S(=O)(=O)c4c(C)noc4C)CC3)CC2)c1C,active: 14.1 µM,–
NC(=O)Nc1sc(-c2ccc(F)cc2)cc1C(N)=O,"inconclusive: 2.43 µM [inhibitor, full curve]",–
Cc1c(C(=O)N2CCCC2)oc2c1-c1nn(CC(=O)NC(C)c3ccccc3)cc1CC2 (centres undefined),"inconclusive: 28.2 µM [inhibitor, single point]",–
Cc1cc(F)ccc1NC(=O)c1ccc2nc(Cc3ccccc3)oc2c1,–,inactive: -28.2%
Cc1ccc(C)c(N2CCN(C(=O)c3cc(S(=O)(=O)N4CCC(C)CC4)cn3C)CC2)c1,"inconclusive: 39.8 µM [inhibitor, partial curve, poor fit]",–
COC(=O)c1c(C)oc2ccc(N(C(=O)c3ccncc3)S(=O)(=O)c3c(C)cc(C)cc3C)cc12,"inconclusive: 2.24 µM [inhibitor, full curve, poor fit]",–
O=C(NCc1ccccc1)c1nc(S(=O)(=O)Cc2ccccc2)ncc1Cl,"inconclusive: 39.8 µM [inhibitor, single point]",–
CN1CCc2nc3sc(C(=O)Nc4ccccc4OC(F)(F)F)c(N)c3cc2C1,"inconclusive: 35.5 µM [inhibitor, partial curve, poor fit]",–
Cc1ccc(Cn2c(SCC(=O)C(C)(C)C)nc3ccsc3c2=O)cc1,"inconclusive: 22.4 µM [inhibitor, partial curve]",–
CC1=Nc2cc(C(=O)NCCc3ccccc3)ccc2Sc2c(C)ccc(C)c21,"inconclusive: 8.91 µM [inhibitor, partial curve, poor fit]",–
Cc1cccc(C(=O)Nc2c(C(=O)NCc3ccc(Cl)cc3)sc3nc(C)cc(C)c23)c1,"inconclusive: 28.2 µM [inhibitor, partial curve, poor fit]",–
COc1ccc(OC)c(CCNC(=O)c2cnn(-c3ccccc3Cl)c2C2CCN(C(=O)OC(C)(C)C)CC2)c1,"inconclusive: 28.2 µM [inhibitor, single point]",–

# From PubChem BioAssay AID1508623 (National Center for Advancing Translational Sciences (NCATS), 2021)
